Among all 48,000 compounds or so, about 1,200 (2.5%) were called active. Another 2% or so got no clear call; they are omitted.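 How the source made its calls: active means activation of at least 60% and not above a set upper limit (about 1 call in 100 departs from these limits); inconclusive means activation of 40% to 60%, or above that upper limit; inactive means activation under 40%.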 The list shows a part of the results.

For 85 compounds, activation results are on record in PubChem BioAssay AID1346428 (National Center for Advancing Translational Sciences (NCATS), 2018).

Sequence of UniProt O75388 (O75388 whole entry, looked up): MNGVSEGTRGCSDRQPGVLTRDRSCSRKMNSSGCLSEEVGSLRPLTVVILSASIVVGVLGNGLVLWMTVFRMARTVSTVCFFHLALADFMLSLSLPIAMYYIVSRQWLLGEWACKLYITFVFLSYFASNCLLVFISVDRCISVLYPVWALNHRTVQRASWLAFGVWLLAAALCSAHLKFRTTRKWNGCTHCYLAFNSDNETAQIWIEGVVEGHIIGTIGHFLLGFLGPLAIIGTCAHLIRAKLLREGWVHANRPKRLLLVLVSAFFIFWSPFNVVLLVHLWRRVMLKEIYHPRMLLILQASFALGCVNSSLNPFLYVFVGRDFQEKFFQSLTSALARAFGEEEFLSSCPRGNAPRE

This assay concerns the target Probable G-protein coupled receptor 32 (Homo sapiens) (UniProt O75388). Put plainly: qHTS for Agonists of Human Resolvin D1 Receptor DRV1. Further: 0% is about no effect. Particulars: CHO-K1 GPR32 beta-arrestin PathHunter luminescence, 90 min; at 76.9 µM; hits give high values; zero percent set by DMSO-only wells. The essentials:
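CHO-K1 cells stably expressing ProLink-tagged GPR32 and Enzyme Activator-tagged beta-arrestin were seeded at 2,500 cells/well overnight, exposed to compounds for 90 min at 37 °C, then read by beta-Gal complementation chemiluminescence after 1 h detection reagent.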
For orientation: Quantitative high-throughput screening tests each substance at several concentrations.
As to `O=C(CCCc1ccccc1)NC1CC(=O)N(c2ccc(Cl)cc2)C1` (stereo not given), the activation is inactive: -6.12%. For the compound `CC1=C(c2ccc(C(C)C)cc2)S(=O)(=O)N=C1N1CCN(c2ccc(F)cc2)CC1`, the activation is inactive: -13.8%.

Turning to `Cc1cccc(-c2nc3c4ccccc4nc(N4CCN(c5ccc(F)cc5)CC4)n3n2)c1`, the activation was inactive: 12%. On to `Cc1ccc(Cl)cc1NC(=O)c1ccc(NC(=O)N2CCSc3ncccc32)cc1`, for which the activation was inactive: -5.77%. Consider `Cc1ccc(OCC(=O)Nc2nnc(SCc3cc(=O)c4ccccc4[nH]3)s2)cc1C`, for which the activation was inactive: 33.7%. `COc1ccccc1C(=O)n1nc(-c2cccnc2)nc1NCc1ccccc1`: the activation was inactive: -22.4%. As to `COc1ccc(NC(=O)c2coc(=O)c3ccccc23)cc1OC`, the activation is inactive: -10.6%. On to `CC1=Nc2cc(C(=O)NC3CCCCC3)ccc2Sc2ccc(Cl)cc21`, for which the activation is inactive: -15.4%. In the case of `CCCOc1ccc(C2C(=O)N(C3CCCCC3)CC(=O)N2CCc2ccccc2)cc1OC` (stereo not given) it was inactive: 4.6%. As to `CCOC(=O)c1cccc(NS(=O)(=O)c2cc(-c3cnc(C)o3)ccc2OC)c1`, the activation was inactive: 11%. With `CN(C)C(=O)c1ccc(NC(=O)Cn2nc(-c3ccccc3)c3ccccc3c2=O)cc1`, the activation is inactive: 12%. In the case of `CCCCCNC(=O)c1cc2c(=O)n3ccccc3nc2n1C` it was inactive: -9.37%; in that of `Cc1cccc(NC(=O)c2c(NC(=O)c3cccs3)sc3c2CCC(C)C3)c1` (stereo not given), inactive: 19.1%. Consider `CCCCNC(=O)C(CC)Sc1nnc(-c2ccc(F)cc2)c(-c2ccc(F)cc2)n1` (stereo not given), for which the activation was inactive: -22.3%. Take `CCOC(=O)c1c(NC(=O)COc2cc(C)ccc2C(C)C)sc2c1CCCC2`: the activation was inactive: -3.99%. In the case of `COc1ccccc1N1CCN(C(CNC(=O)C(=O)NCCN(C)C)c2cccnc2)CC1` (stereo not given) it was inactive: 5.99%. As for `CC(=O)Nc1ccc(OCc2cc(=O)n3ccccc3n2)cc1`, the figure is inactive: -6.19%; as for `COc1cccc(CN2CCc3nc(Nc4ccc5c(c4)OCCO5)ncc3C2)c1OC`, active: 85.7%. For the compound `Cc1ccc(-c2noc(-c3ccccc3NC(=O)C3CC(=O)N(c4cccc(C)c4)C3)n2)cc1` (stereo not given), the activation is inactive: 5.63%. As for `CCOc1ccc(NC(=O)c2cc(=O)c3cc(CC)ccc3o2)cc1`, the activation is inactive: 39%.

On to `Cc1cccc(NC(=O)CSc2nc(=O)n(Cc3ccncc3)c3c2CCC3)c1C`, for which the activation was inactive: -9.21%.

As for `Oc1ccc(/C=C/c2nc(-c3ccccc3O)n(-c3ccccc3)n2)c(O)c1`, the activation was inactive: -12.1%.

As for `CCOc1ccc(NC(=O)CSc2nc(-c3cccs3)cc(C(F)(F)F)c2C#N)cc1`, the activation is inactive: 6.27%. As for `CCc1ccc(C2=C(C)C(N3CCC(C(=O)Nc4cccc(OC)c4)CC3)=NS2(=O)=O)cc1`, the figure is inactive: -12.6%; as for `COc1cccc(CNC(=O)C2CCN(S(=O)(=O)c3ccc4c(ccn4C)c3)CC2)c1`, inactive: -20.2%.

Turning to `COc1ccc(-c2cn3cccnc3n2)cc1NC(=O)c1c(F)cccc1F`, the activation was inactive: -9.55%. As for `CSc1ccc(C2c3[nH]c4ccccc4c3CCN2C(=O)CCc2ccccc2)cc1` (stereo not given), the figure is inactive: -29.2%; as for `COc1cc(Cl)c(C)cc1NC(=O)CCn1c(=O)c2cccn2c2cccnc21`, inactive: -20.2%; as for `Cc1ccc(-n2nc3c(=O)n(CCCC(=O)NCCc4ccccc4)nc(C)c3c2C)cc1`, inactive: -15%.

Take `CC(C)c1nc2ccc(C(=O)NCc3ccc(N(C)C)cc3)cc2o1`: the activation is inactive: -9.47%.

Turning to `COc1ccc(C)cc1Nc1nc2ccccc2c2nnc(C)n12`, the activation was inactive: 9.83%.

Turning to `Cc1cccc(CCNC(=O)CCS(=O)(=O)c2cc3c(cc2Cl)NC(=O)CO3)c1`, the activation was inactive: -13.8%. As for `Cc1cccc(NC(=O)CSc2nc3c(oc4ccccc43)c(=O)n2Cc2ccco2)c1`, the figure is inactive: -20.2%. In the case of `CCN1CCN(C(c2cccc(F)c2)c2c(O)cc(C)n(CCOC)c2=O)CC1` (stereo not given) it was inactive: -10.5%. `COc1ccc(Cl)cc1NC(=O)c1cc(S(=O)(=O)N2CCC(C)CC2)cn1C`: the activation is inactive: -5.05%. Turning to `CCc1nc2cccnc2n1-c1ccc(CC(=O)Nc2ccccc2Cl)cc1`, the activation was inactive: -5.34%. Consider `CCOc1ccc(CNC(=O)CCC(=O)N2CC3CCCN3c3ccccc32)cc1` (stereo not given), for which the activation was inactive: -31.2%. In the case of `CCOC(=O)c1c(N)n(-c2ccccc2CC)c2nc3ccccc3nc12` it was inactive: -2.42%; in that of `COc1ccccc1-c1noc(CSc2nnc(Cc3ccccc3)n2-c2ccc(C)c(C)c2)n1`, inactive: -29.2%; in that of `Cc1ccc(C)n1-c1nnc(N2CCC(C(=O)NCc3ccc(F)cc3)CC2)s1`, inactive: -25%. As to `CC(C)C(=O)Nc1ccc2nc(SCC(=O)N3CCOCC3)sc2c1`, the activation was inactive: -5.18%. On to `Cc1ccc(N2CC(c3nnc(NC(=O)c4ccco4)s3)CC2=O)cc1Cl` (stereo not given), for which the activation is inactive: -11.8%.

With `O=S(=O)(c1ccc(Br)cc1)c1nnn2c1nc(NC1CCCCCC1)c1sccc12`, the activation is inactive: -4.6%. `CCc1nn(CC(=O)NCCC(C)C)c(=O)c2cc3occc3n12`: the activation is inactive: 10.7%. For the compound `CC1(C)S[C@@H]2[C@H](NC(=O)[C@H](N)c3ccccc3)C(=O)N2[C@H]1C(=O)O`, the activation was inactive: 0.246%. On to `CCn1c(C)c(C2N3CC4(C)CN2CC(CC)(C3)C4=O)c2ccccc21` (stereo not given), for which the activation was inactive: -10.5%. As for `COc1ccc(NS(=O)(=O)c2ccc3c(c2)C(C(C)C)C(=O)N3)cc1` (stereo not given), the figure is inactive: 25.3%. With `Cc1ccc(CNC(=O)CSc2ncc(S(=O)(=O)c3ccc(Br)cc3)c(=O)[nH]2)cc1`, the activation was inactive: -7.72%. As for `Nc1c(C(=O)Nc2ccccc2Cl)c2ccccn2c1C(=O)c1ccc(Cl)cc1`, the figure is inactive: 27.2%; as for `COc1ccc(NC(=O)CSc2nc3c([nH]c4ccccc43)c(=O)n2C)cc1`, inactive: -9.07%. As for `COC(=O)c1sccc1S(=O)(=O)N(CC(=O)NCc1ccccc1)c1ccccc1`, the figure is inactive: -4.5%. In the case of `Cc1ccc(CNC(=O)C(=O)NCC(c2cccs2)S(=O)(=O)c2ccc(C)cc2)cc1` (stereo not given) it was inactive: -1.53%; in that of `Cc1c(C(=O)N2CCC(C)CC2)c(S(=O)(=O)NCc2ccccc2)c(C)n1C`, inactive: -14%. For `COc1cccc(CC(=O)Nc2ccc3nc(N4CCC(C)CC4)cc(C)c3c2)c1`, the activation was inactive: -6.3%.

Take `Cc1nn(C(=O)c2ccccc2F)c(C)c1S(=O)(=O)N1CCOCC1`: the activation is inactive: -0.54%. Consider `COc1ccc(Nc2ncnc3c2cnn3-c2ccc(C)cc2C)cc1`, for which the activation is inactive: 6.28%.

Turning to `CCOc1ccccc1NS(=O)(=O)c1c(C)nc2sccn2c1=O`, the activation is inactive: 0.488%.

Regarding `COc1ccccc1C(=O)Nc1ccc2nc(N3CCC(C)CC3)cc(C)c2c1`, the activation is inactive: 20%.

On to `CC(=O)c1cccc(NC(=O)Cn2c(=O)c(CNc3ccc(C)cc3)cc3cc4c(cc32)OCCO4)c1`, for which the activation is inactive: -10.2%.

Turning to `CCn1c(=O)c2cc(C(=O)N(CCCOC(C)C)Cc3ccco3)sc2c2ccccc21`, the activation is inactive: 41.8%. For `Cc1cc(C)c(NC(=O)Cn2c(SCC(=O)NCc3ccccc3)nc3ccccc32)c(C)c1`, the activation was inactive: -4.81%. In the case of `Cc1ccc(-c2sc(C(=O)Nc3ccc(Br)cc3)cc2CC(=O)O)cc1`, the activation is inactive: -15.1%.

In the case of `c1ccc(C(c2cccs2)c2c[nH]c3ccccc23)cc1` (stereo not given), the activation is inactive: 44.3%. As for `Cc1cccc(-n2c(=O)c3c(c4cc(C)ccc4n3C)n(CC(=O)Nc3ccccc3C(F)(F)F)c2=O)c1`, the activation is inactive: -2.14%. In the case of `Oc1ccc(Cl)cc1Sc1cc(Cl)ccc1O` it was inactive: 48%; in that of `COc1ccc(-c2nc3n(n2)C(c2ccccc2F)C(C(=O)Nc2cccnc2)=C(C)N3)cc1OC` (stereo not given), inactive: -13.6%; in that of `Cc1ccc(CNc2ncnc3c2c(-c2ccccc2)cn3-c2cccc(Cl)c2)cc1`, inactive: -34.6%.

Turning to `Cc1ccc(-c2noc(CN(C3CCCCC3)S(=O)(=O)c3ccc(Cl)cc3)n2)cc1`, the activation was inactive: -17.6%. As for `CCCCN(C(=O)c1cccc(S(=O)(=O)N2CCCCC2)c1)C1CCS(=O)(=O)C1` (stereo not given), the figure is inactive: -19.4%. For the compound `COc1ccc(C2CC(=O)c3c([nH]c(C(=O)OC4CCC(C)CC4)c3C)C2)cc1OC` (stereo not given), the activation is inactive: -6.14%. With `O=C(Nc1ccc(F)c(Cl)c1)N1CCN2CCCCC2C1` (stereo not given), the activation is inactive: -10.7%.

`COCCCNC(=O)c1sc2ncccc2c1-n1cccc1`: the activation was inactive: -12.2%. With `CCN(CC)c1ccc(-c2nc(-c3ccncc3)no2)cc1[N+](=O)[O-]`, the activation was inactive: 8.23%.

For the compound `Cc1ccc2cccc(NC(=O)c3cccc4ccccc34)c2n1`, the activation is inactive: -11.5%. For `CCc1cccc2sc(N3CCN(C(=O)C4CC4)CC3)nc12`, the activation is inactive: -23.5%. Turning to `Cc1cc(NC(c2nnc(-c3ccccc3)o2)c2ccccc2F)ccc1Br` (stereo not given), the activation was inactive: -9.58%. For the compound `COc1ccc(NCc2ccccc2-c2nnc(-c3ccccc3)o2)cc1Cl`, the activation is inactive: -10.5%.

Take `O[C@@H](CNC[C@H](O)[C@H]1CCc2cc(F)ccc2O1)[C@@H]1CCc2cc(F)ccc2O1`: the activation is active: 62.4%. As for `CCS(=O)(=O)Nc1cc(-c2cn3ccc(C)cc3n2)ccc1C`, the figure is inactive: 25.7%; as for `CC(C)(C)OC(=O)N1CCC(c2c(C(=O)N3CCc4ccccc4C3)cnn2-c2ccc(Cl)cc2)CC1`, inactive: -18.4%; as for `CCOc1ccccc1C(=O)N(Cc1ccc(N(C)C)cc1)CC1CCCO1` (stereo not given), inactive: -23.2%.

In the case of `CCN1C(=O)c2cccc3c(S(=O)(=O)Nc4ccc(O)c(C(=O)O)c4)ccc1c23`, the activation was inactive: -36.1%.

Turning to `Cc1cc(C)cc(C(=O)N2CC(=O)Nc3ccc(C)cc3C2c2ccccc2)c1` (stereo not given), the activation is inactive: -12.5%. As for `CCCCNC(=O)CSc1nc2cc3c(cc2c(=O)n1CCCC(=O)NCc1ccc2c(c1)OCO2)OCO3`, the figure is inactive: -9.79%.

Turning to `Cc1ccc(-n2nc3ccc(NC(=O)c4cc5ccccc5o4)cc3n2)cc1`, the activation is inactive: -6.58%.
